# Measured values: the supplement of paper PMC8728848
# Some of the results follow.
# B1: EULS2 M2 (Oryza sativa) (protein)
# chain: MVYCRANPNYAMTARNGAVVLAPANPKDEYQHWIKDMRWSTSIKDEEGYPAFALVNKATGQAIKHSLGQSHPVRLVPYNPEVMDESVLWTESRDVGNGFRCIRMVNNIYLNFDAFHGDKYHGGVRDGTDIVLWKLCEGDSQRWKIQPYYILEQKLISEEDLNSAVDHHHHHH
# Columns and labels:
# [1] = biological target: Neu5Gc(a2-8)Neu5Gc(a2-6)Gal(b1-4)GlcNAc; assay: glycan array binding signal (z-score within array); higher = stronger binding; settings: glycan notation: IUPAC condensed, linker removed
# Method in brief: (§1)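 The binding signal is a Z-score computed within each array. Data were drawn from 3228 arrays in the Consortium for Functional Glycomics database, restricted to those with a known protein sequence. Scores were averaged over arrays of the same protein sequence at different concentrations or buffers, and over linkers, and negative values can be taken as non-binding.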
# [2] = biological target: Neu5Gc(b2-6)Gal(b1-4)GlcNAc; assay: as above; settings: glycan notation: IUPAC condensed, linker removed
# Method in brief: as §1
binder,measurement,setting,value
B1,glycan array binding signal (z-score),[1],-0.339
same,glycan array binding signal (z-score),[2],0.485
